# According to PubChem BioAssay (Tox21):
# Where “and” joins values, the source holds several entries; their conditions need not be identical. Equal values may be shown once. The shares of active, inactive and inconclusive entries below differ from those in the screen. For some of these results: Potencies beside an inconclusive call are fits to weak or partial responses and may not hold up. Some structures have more than one record in an assay (separate samples or runs), and their calls can disagree. Calls of active or inactive are those of the source. Unless noted, the call rests on the fitted dose curve; in most records, active means well fitted curve in the direction sought with a large enough effect in the repeat runs; inconclusive means weak or mixed curves; inactive means no such curve, though single readings can be large; an effect the other way counts as inactive or inconclusive.
# Experiments:
# [1] = A CellTox Green Cytotoxicity Assay to monitor cytotoxicity in HepG2 cells - 32 hour (AID 1224883); further: nearly all actives have a fitted effect of over 50% in size
# Outline: (§1)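 Using 1536-well format, dye-containing HepG2 suspension was seeded, allowed 5 h at 37 C/5% CO2, dosed by pintool with compounds, positive and negative controls, and imaged for fluorescence across 40 h.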
# [2] = qHTS RealTime-Glo MT Cell Viability Assay in HEK293 cells - 24 hour (AID 1224886); further: nearly all actives have a fitted effect of over 50% in size
# Outline: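 Reads taken at 0, 8, 16, 24, 32 and 40 h from the same wells. HEK293 cells (600/well) carried RealTime-Glo reagents from seeding, with compound added after a 5 h settle at 37 C.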
# [3] = qHTS assay to identify small molecule antagonists of the sonic hedgehog signaling (Shh) pathway - cell viability counter screen (AID 1259367); further: nearly all actives have a fitted effect of over 55% in size
# Outline: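 NIH/3T3-derived Gli1-Luc reporter cells (2,000 per well) rested 4 hr at 37 C, then received DMSO compounds plus conditioned medium. After 23 hr of treatment, CellTiter-Fluor was added for 1 hr at 37C and fluorescence read.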
# [4] = qHTS assay to identify small molecule antagonists of the sonic hedgehog signaling (Shh) pathway (AID 1259369; calls by dose curve; further: nearly all actives have a fitted effect of over 45% in size)
# Outline: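 For antagonist detection, the reporter line received test compounds together with conditioned medium, incubated 24hr at 37 C, 5% CO2, then luminescence was recorded following 30min room-temperature luciferase reagent incubation.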
# [5] = molecular target: Estrogen receptor beta (Homo sapiens) (UniProt Q92731); assay: qHTS assay to identify small molecule agonists of the estrogen receptor beta (ER-beta) signaling pathway (AID 1259377; active means well fitted activation curve with a large enough effect in the signal ratio in the repeat runs, not every such curve was filed as active; inconclusive means weak or mixed curves, or effect the other way; the % refers to the signal ratio; on activation: on the % scale 0 is the no-effect control and ±100 the full control effect); conditions: ER-beta-UAS-bla HEK293T, beta-lactamase FRET ratio, 16 h; activation: at 92.4 µM (top of the series) unless noted
# UniProt Q92731, sequence (Q92731 whole entry, looked up): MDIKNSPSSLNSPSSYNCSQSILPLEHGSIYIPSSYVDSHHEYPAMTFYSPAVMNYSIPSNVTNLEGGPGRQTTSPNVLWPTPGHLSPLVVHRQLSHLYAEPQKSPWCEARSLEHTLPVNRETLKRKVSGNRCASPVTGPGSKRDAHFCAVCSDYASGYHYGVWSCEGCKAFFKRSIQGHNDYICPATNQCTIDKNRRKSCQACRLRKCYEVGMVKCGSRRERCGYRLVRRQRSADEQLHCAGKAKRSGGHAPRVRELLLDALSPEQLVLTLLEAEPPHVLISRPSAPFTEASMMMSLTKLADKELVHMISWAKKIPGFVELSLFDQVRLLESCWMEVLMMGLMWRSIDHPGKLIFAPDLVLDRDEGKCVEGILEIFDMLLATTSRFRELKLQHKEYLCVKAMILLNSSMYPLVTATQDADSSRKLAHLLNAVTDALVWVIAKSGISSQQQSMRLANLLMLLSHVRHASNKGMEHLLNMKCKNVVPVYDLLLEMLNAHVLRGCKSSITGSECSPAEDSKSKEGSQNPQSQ
# Outline: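 Reporter cells (HEK293T, ER-beta-UAS-bla) receive compounds or DMSO after a 6 hr pre-incubation. They then incubate 16 hr at 37C/5% CO2, and fluorescence from LiveBLAzer B/G substrate is measured after 2 hours at room temperature.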
# [6] = A CellTox Green Cytotoxicity Assay to monitor cytotoxicity in HEK293 cells - 16 hour (AID 1224888); further: nearly all actives have a fitted effect of over 35% in size
# Outline: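 Fluorescence intensity, read at 0, 8, 16, 24, 32 and 40 h of compound treatment, reflected dye binding to DNA of dead HEK293 cells; compounds (23 nL, DMSO) were added 5 h after plating cells with reagent.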
# [7] = qHTS RealTime-Glo MT Cell Viability Assay in HepG2 cells - 0 hour (AID 1224889); further: nearly all actives have a fitted effect of over 50% in size
# Outline: (§2)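 HepG2 suspension premixed with RealTime-Glo reagents is plated at 600 cells per well and left 5 h at 37 C/5% CO2. Compounds in DMSO then go in, and bioluminescence reflecting viable cell number is recorded over 40 h.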
# [8] = qHTS assay to identify small molecule antagonists of the androgen receptor (AR) signaling pathway using the MDA cell line in the presence of 0.5 nM R1881 - cell viability counter screen (AID 1259242); further: nearly all actives have a fitted effect of over 45% in size
# Outline: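 Viability of MDA-kb2 cells was multiplexed with the luciferase AR readout; after 16 hr with compounds and R1881 at 0.5 nM final, CellTiter-Fluor fluorescence was recorded.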
# [9] = qHTS assay to identify small molecule phospholipidosis (PLD) inducers (AID 1259344; active means well fitted curve in the direction sought with a large enough effect; inconclusive means small, poorly fitted or top-dose-only effect, or another doubt; inactive means no such curve, though single readings can be large; an effect the other way counts as inactive or inconclusive)
# Outline: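 HepG2 cells on collagen I, attached 4 h at 37 C, were co-treated with compound and LipidTOX Red dye for 24 h at 37 C, then fixed with paraformaldehyde plus Hoechst 33342 and imaged by high-content microscopy for phospholipid accumulation.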
# [10] = qHTS assay to identify small molecule agonists of the sonic hedgehog signaling (Shh) pathway - cell viability counter screen (AID 1259366); further: nearly all actives have a fitted effect of over 50% in size
# Outline: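 In quantitative high-throughput format, 3T3 Gli1-Luc cells were exposed to compounds for 24hr and multiplexed for viability using CellTiter-Fluor, incubated 1hr at 37C before the fluorescence read.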
# [11] = A CellTox Green Cytotoxicity Assay to monitor cytotoxicity in HepG2 cells - 8 hour (AID 1224890); further: nearly all actives have a fitted effect of over 45% in size
# Outline: as §1
# [12] = molecular target: Estrogen receptor (Homo sapiens) (UniProt P03372); assay: qHTS assay to identify small molecule antagonists of the estrogen receptor alpha (ER-alpha) signaling pathway using the BG1 cell line in the presence of 0.1 nM 17-beta-estradiol (AID 1259244); further: nearly all actives have a fitted effect of over 50% in size
# UniProt P03372, sequence (P03372 whole entry, looked up): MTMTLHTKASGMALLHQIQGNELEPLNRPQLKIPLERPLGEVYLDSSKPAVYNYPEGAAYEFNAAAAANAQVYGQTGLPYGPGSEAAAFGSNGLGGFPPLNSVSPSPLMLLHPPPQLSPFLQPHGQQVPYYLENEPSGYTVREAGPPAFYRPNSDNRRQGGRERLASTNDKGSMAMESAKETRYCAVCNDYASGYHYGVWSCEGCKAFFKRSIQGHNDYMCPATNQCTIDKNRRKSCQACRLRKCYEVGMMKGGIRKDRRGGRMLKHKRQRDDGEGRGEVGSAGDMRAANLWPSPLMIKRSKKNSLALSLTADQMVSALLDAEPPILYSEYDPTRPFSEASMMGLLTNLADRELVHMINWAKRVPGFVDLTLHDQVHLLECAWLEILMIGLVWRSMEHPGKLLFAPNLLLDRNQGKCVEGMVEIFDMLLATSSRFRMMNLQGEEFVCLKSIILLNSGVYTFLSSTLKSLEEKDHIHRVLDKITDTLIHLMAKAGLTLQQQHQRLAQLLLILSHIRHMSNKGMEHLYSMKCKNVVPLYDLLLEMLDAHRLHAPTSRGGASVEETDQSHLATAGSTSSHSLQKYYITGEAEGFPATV
# Outline: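 Estradiol at 0.1 nM (final) stimulates the endogenous ER-alpha of VM7Luc4E2 cells carrying an ERE-driven luciferase; compounds are co-incubated 22 h at 37C and luciferase output quantified by luminescence.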
# [13] = qHTS RealTime-Glo MT Cell Viability Assay in HEK293 cells - 8 hour (AID 1224887); further: nearly all actives have a fitted effect of over 50% in size
# Outline: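 Viable HEK293 cells reduce a cell-permeant prosubstrate; the product diffuses out and is consumed by NanoLuc in the medium to give light. Compounds went in after a 5 h incubation and plates were read over the treatment course.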
# [14] = qHTS assay to identify small molecule antagonists of the estrogen receptor alpha (ER-alpha) signaling pathway using the BG1 cell line in the presence of 0.1 nM 17-beta-estradiol - cell viability counter screen (AID 1259241); further: nearly all actives have a fitted effect of over 40% in size
# Outline: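 In this screen, hormone-deprived VM7Luc4E2 cells were seeded at 4,000 per well, dosed with compound and 0.1 nM estradiol final, and incubated 22 hr at 37C and 5% CO2; fluorogenic live-cell protease signal reported viability.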
# [15] = molecular target: Androgen receptor (Homo sapiens) (UniProt P10275); assay: qHTS assay to identify small molecule antagonists of the androgen receptor (AR) signaling pathway using the MDA cell line in the presence of 0.5 nM R1881 (AID 1259243); further: nearly all actives have a fitted effect of over 50% in size
# UniProt P10275, sequence (P10275 whole entry, looked up): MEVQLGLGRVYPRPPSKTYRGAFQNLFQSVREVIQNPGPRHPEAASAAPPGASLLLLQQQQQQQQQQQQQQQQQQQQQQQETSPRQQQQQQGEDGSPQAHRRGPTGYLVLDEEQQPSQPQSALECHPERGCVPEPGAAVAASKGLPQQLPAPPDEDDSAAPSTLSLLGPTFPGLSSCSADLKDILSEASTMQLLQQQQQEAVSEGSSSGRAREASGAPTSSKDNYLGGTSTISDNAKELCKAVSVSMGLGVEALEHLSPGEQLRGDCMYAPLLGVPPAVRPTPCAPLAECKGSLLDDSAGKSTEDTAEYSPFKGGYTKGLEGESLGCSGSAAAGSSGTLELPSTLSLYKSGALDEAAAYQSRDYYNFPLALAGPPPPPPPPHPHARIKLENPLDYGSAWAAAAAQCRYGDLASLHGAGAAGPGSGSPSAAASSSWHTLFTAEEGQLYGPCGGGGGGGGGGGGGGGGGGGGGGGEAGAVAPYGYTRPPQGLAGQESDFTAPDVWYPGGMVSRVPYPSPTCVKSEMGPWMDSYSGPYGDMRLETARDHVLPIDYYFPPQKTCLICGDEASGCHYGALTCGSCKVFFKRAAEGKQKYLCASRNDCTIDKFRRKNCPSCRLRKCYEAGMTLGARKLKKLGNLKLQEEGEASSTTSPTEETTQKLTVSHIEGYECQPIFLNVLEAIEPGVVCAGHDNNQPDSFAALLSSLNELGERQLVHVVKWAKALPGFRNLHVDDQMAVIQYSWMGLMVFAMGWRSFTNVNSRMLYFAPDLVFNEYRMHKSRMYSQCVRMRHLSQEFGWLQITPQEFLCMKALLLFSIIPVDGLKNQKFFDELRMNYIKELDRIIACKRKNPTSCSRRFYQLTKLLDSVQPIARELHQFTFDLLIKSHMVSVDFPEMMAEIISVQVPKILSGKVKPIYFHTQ
# Outline: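 Reporter cells cultured without CO2 receive test chemicals, then 0.5 nM R1881 final; after 16 hr at 37C, ONE-Glo is added and light output recorded.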
# [16] = qHTS assay to identify small molecule HDAC inhibitors (AID 1259364);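 further: wild-type HCT-116 cells with endogenous class I/II HDAC activity; nearly all actives have a fitted effect of over 45% in size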
# Outline: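 Read-out: luminescence of HDAC-Glo I/II reagent, 30 min RT, reflecting class I/II deacetylase activity in whole HCT-116 cells pre-exposed 2 h to DMSO-dissolved compounds.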
# [17] = qHTS RealTime-Glo MT Cell Viability Assay in HepG2 cells - 16 hour (AID 1224885); further: nearly all actives have a fitted effect of over 50% in size
# Outline: as §2
# Potency means the concentration at half of the fitted maximal effect; tags describe the fitted curve by direction and shape or compound fluorescence and quenching.
compound,measurement,setting,value
COC(=O)Nc1nc2ccc(C(=O)C3CC3)cc2[nH]1,Potency,[1],active: 0.952 µM
same,Potency,[2],"inconclusive: 0.601 µM [cytotoxic, full curve]"
same,Potency,[3],"inconclusive: 1.33 µM [cytotoxic, full curve]"
C=C(C)[C@@H]1CCC2=CC(=O)C[C@@H](C)[C@]2(C)C1,Potency,[1],"inconclusive: 54.9 µM [activator, single point]"
same,Potency,[2],inactive
same,Potency,[4],"inconclusive: 68.6 µM [inhibitor, single point]"
same,Potency,[5],"inconclusive: 24.3 µM [activator, partial curve, poor fit]"
CN(C)CCCN1c2ccccc2CCc2ccccc21,Potency,[1],"active: 54.9 µM and inconclusive: 26.8 µM [activator, single point]"
same,Potency,[2],"inconclusive: 54.9 µM [cytotoxic, single point]"
same,Potency,[6],"inconclusive: 3.38 µM [activator, partial curve]"
same,Potency,[7],"inconclusive: 49 µM [rising, partial curve] and inconclusive: 15.1 µM [rising, partial curve]"
same,Potency,[8],"inconclusive: 54.5 µM [cytotoxic, single point]"
same,Potency,[9],"inconclusive: 14.1 µM [activator, single point]"
same,Potency,[10],"inconclusive: 24.3 µM [cytotoxic, partial curve]"
same,Potency,[3],"inconclusive: 21.7 µM [cytotoxic, partial curve]"
COC1=CC(=O)C[C@@H](C)[C@]12Oc1c(Cl)c(OC)cc(OC)c1C2=O,Potency,[1],"active: 34.4 µM and inconclusive: 21.9 µM [activator, full curve, poor fit] and inconclusive: 26.8 µM [activator, single point]"
same,Potency,[2],"inconclusive: 27.3 µM [cytotoxic, partial curve, poor fit] and inconclusive: 15.5 µM [cytotoxic, full curve]"
same,Potency,[6],"inconclusive: 30.6 µM [activator, partial curve]"
same,Potency,[11],"inconclusive: 49 µM [activator, partial curve, poor fit]"
same,Potency,[10],inconclusive: 21.5 µM [cytotoxic]
same,Potency,[4],"inconclusive: 15 µM [inhibitor, full curve]"
N=C(N)c1ccc(OCCCCCOc2ccc(C(=N)N)cc2)cc1,Potency,[1],"inconclusive: 46.8 µM [activator, single point]"
same,Potency,[2],"inconclusive: 12 µM [cytotoxic, partial curve]"
same,Potency,[12],"inconclusive: 18.8 µM [inhibitor, partial curve, poor fit]"
same,Potency,[4],active: 3.84 µM and active: 2.33 µM and active: 18.8 µM
CCCCN1CCCC1C(=O)Nc1c(C)cc(C)cc1C (centres undefined),Potency,[1],"inconclusive: 23.9 µM [activator, single point]"
same,Potency,[2],"inconclusive: 23.9 µM [cytotoxic, partial curve, poor fit]"
same,Potency,[6],"inconclusive: 15.1 µM [activator, partial curve]"
same,Potency,[11],"inconclusive: 26.8 µM [activator, single point]"
CC(=O)OCC1=C(C(=O)O)N2C(=O)[C@@H](NC(=O)Cc3cccs3)[C@H]2SC1,Potency,[1],inactive
same,Potency,[2],inactive
same,Potency,[6],inactive
CN1CCCCC1CCN1c2ccccc2Sc2ccc(S(C)=O)cc21 (centres undefined),Potency,[1],"inconclusive: 26.8 µM [activator, single point]"
same,Potency,[2],"inconclusive: 23.9 µM [cytotoxic, partial curve, poor fit]"
same,Potency,[9],"inconclusive: 14.1 µM [activator, single point]"
same,Potency,[10],"inconclusive: 16.8 µM [cytotoxic, partial curve]"
COCCc1ccc(OCC2CO2)cc1 (centres undefined),Potency,[1],inactive
same,Potency,[2],inactive
CC1=Nc2ccccc2C1(C)C,Potency,[1],active: 43.7 µM
same,Potency,[2],inactive
same,Potency,[11],"inconclusive: 55 µM [activator, single point]"
CC(=O)Nc1ccc2c(c1)Cc1cc(NC(C)=O)ccc1-2,Potency,[1],"inconclusive: 43.6 µM [activator, partial curve, poor fit]"
same,Potency,[13],inactive
NNc1nc(-c2ccccc2)cs1,Potency,[1],inactive
same,Potency,[2],"inconclusive: 56.5 µM [cytotoxic, single point]"
same,Potency,[13],"inconclusive: 56.5 µM [cytotoxic, single point]"
O=C(O)CCCCCCCCCCCC(=O)O,Potency,[1],"inconclusive: 54.1 µM [activator, single point]"
same,Potency,[2],"inconclusive: 27.1 µM [cytotoxic, partial curve, poor fit]"
same,Potency,[13],inactive
same,Potency,[8],"inconclusive: 30.1 µM [cytotoxic, full curve]"
CCCCCCCC/C=C\CCCCCCCCN,Potency,[1],"inconclusive: 26.8 µM [activator, single point]"
same,Potency,[2],active: 21.3 µM
same,Potency,[13],active: 23.9 µM
same,Potency,[11],"inconclusive: 21.3 µM [activator, single point]"
COc1ccc2c(c1OC)C(=O)O[C@@H]2[C@H]1c2c(cc3c(c2OC)OCO3)CCN1C,Potency,[1],"inconclusive: 26.8 µM [activator, single point]"
same,Potency,[2],"inconclusive: 9.52 µM [cytotoxic, partial curve]"
same,Potency,[14],"inconclusive: 7.5 µM [cytotoxic, full curve]"
same,Potency,[4],"inconclusive: 33.5 µM [inhibitor, partial curve, poor fit]"
CN(CCOc1ccc(CC2SC(=O)NC2=O)cc1)c1ccccn1 (centres undefined),Potency,[1],"inconclusive: 54.6 µM [activator, partial curve, poor fit]"
same,Potency,[2],"inconclusive: 21.7 µM [cytotoxic, partial curve]"
same,Potency,[13],"inconclusive: 27.4 µM [cytotoxic, partial curve, poor fit]"
same,Potency,[7],"inconclusive: 43.4 µM [cytotoxic, partial curve]"
same,Potency,[12],"inconclusive: 60.8 µM [inhibitor, single point]"
same,Potency,[4],"inconclusive: 1.53 µM [inhibitor, partial curve]"
CCCCC(CC)COC(=O)CCCCCCCC(=O)OCC(CC)CCCC (centres undefined),Potency,[1],"active: 49 µM and inconclusive: 54.9 µM [activator, single point]"
same,Potency,[2],active: 24.5 µM and inactive
same,Potency,[13],"inconclusive: 54.9 µM [cytotoxic, partial curve]"
same,Potency,[8],"inconclusive: 13.7 µM [cytotoxic, full curve]"
same,Potency,[5],"inconclusive: 68.6 µM [rising, single point]"
Cn1sccc1=O,Potency,[1],"inconclusive: 61.6 µM [activator, single point]"
same,Potency,[2],"inconclusive: 61.6 µM [cytotoxic, single point]"
same,Potency,[12],"inconclusive: 68.6 µM [inhibitor, single point]"
same,Potency,[10],"inconclusive: 68.6 µM [cytotoxic, single point]"
C=Cc1ccc(OC(C)=O)cc1,Potency,[1],inactive
same,Potency,[2],"inconclusive: 54.9 µM [rising, partial curve, poor fit]"
Oc1ccc(OCc2ccccc2)cc1,Potency,[1],"inconclusive: 60.4 µM [activator, single point]"
same,Potency,[2],active: 853 nM and inactive
same,Potency,[15],"inconclusive: 47.5 µM [inhibitor, partial curve] and inconclusive: 10.6 µM [inhibitor, partial curve]"
same,Potency,[16],active: 6.71 µM
same,Potency,[3],"inconclusive: 8.45 µM [cytotoxic, partial curve, poor fit]"
same,Potency,[4],inactive
same,activation,[5],inconclusive: 5.49%
O=Cc1ccc(Cl)c([N+](=O)[O-])c1,Potency,[1],"inconclusive: 61.6 µM [activator, single point]"
same,Potency,[2],"inconclusive: 21.9 µM [cytotoxic, single point]"
same,Potency,[16],inactive
same,Potency,[10],active: 27.3 µM
same,Potency,[4],inactive
O=S(=O)(c1ccc(OCc2ccccc2)cc1)c1ccccc1O,Potency,[1],"inconclusive: 61.6 µM [activator, single point]"
same,Potency,[2],"inconclusive: 24.5 µM [cytotoxic, partial curve]"
same,Potency,[13],"inconclusive: 30.9 µM [cytotoxic, partial curve, poor fit]"
same,Potency,[7],inactive
same,Potency,[15],"inconclusive: 68.6 µM [inhibitor, single point]"
same,Potency,[4],"inconclusive: 77 µM [inhibitor, single point]"
same,Potency,[5],"inconclusive: 9.69 µM [rising, partial curve]"
C=CC(C)(O)CCC=C(C)C (centres undefined),Potency,[1],inactive
same,Potency,[13],inactive
COC(=O)Nc1nc2ccc(C(=O)c3cccs3)cc2[nH]1,Potency,[1],"inconclusive: 0.0952 µM [activator, full curve, poor fit]"
same,Potency,[2],"inconclusive: 0.213 µM [cytotoxic, full curve]"
same,Potency,[13],"inconclusive: 7.56 µM [cytotoxic, partial curve, poor fit]"
same,Potency,[3],"inconclusive: 0.531 µM [cytotoxic, full curve, poor fit]"
CC(C)NCC(O)COc1cccc2ccccc12 (centres undefined),Potency,[1],"inconclusive: 55.5 µM [activator, single point] and inconclusive: 54.9 µM [activator, single point]"
same,Potency,[2],"inconclusive: 55.5 µM [cytotoxic, partial curve, poor fit]"
same,Potency,[10],"inconclusive: 61.1 µM [cytotoxic, partial curve, poor fit]"
same,Potency,[4],inconclusive: 30.9 µM [inhibitor] and active: 24.3 µM
same,Potency,[5],inactive
O=C1CCCCCN1SSN1CCCCCC1=O,Potency,[1],"inconclusive: 54.9 µM [activator, single point]"
same,Potency,[17],"inconclusive: 54.9 µM [cytotoxic, single point]"
same,Potency,[10],active: 19.3 µM
same,Potency,[4],active: 9.69 µM
